Experimental data taken from PubChem BioAssay AID1030 (National Center for Advancing Translational Sciences (NCATS), 2008).
Out of some 220,000 compounds screened, about 16,000 (7.3%) were called active. This list was built around the results that the source calls inconclusive (neither active nor inactive); the mix of calls is not that of the screen. Calls follow the shape of the dose curve; as a rule, active = well fitted inhibition curve with a large enough effect (not every such curve was filed as active); inconclusive = small, poorly fitted or top-dose-only effect, or another doubt; inactive = no such curve, though single readings can be large or run the other way. No potency is given beside an inconclusive call; the fits are too rough.

These compounds were tested against Aldehyde dehydrogenase 1A1 (Homo sapiens) (UniProt P00352) (assay: qHTS Assay for Inhibitors of Aldehyde Dehydrogenase 1 (ALDH1A1)). Settings: Purified ALDH1A1, NADH fluorescence, propionaldehyde substrate; series mostly up to 75.3 µM; activity, negative = inhibition: at the top concentration.
UniProt P00352, sequence (P00352 whole entry, looked up): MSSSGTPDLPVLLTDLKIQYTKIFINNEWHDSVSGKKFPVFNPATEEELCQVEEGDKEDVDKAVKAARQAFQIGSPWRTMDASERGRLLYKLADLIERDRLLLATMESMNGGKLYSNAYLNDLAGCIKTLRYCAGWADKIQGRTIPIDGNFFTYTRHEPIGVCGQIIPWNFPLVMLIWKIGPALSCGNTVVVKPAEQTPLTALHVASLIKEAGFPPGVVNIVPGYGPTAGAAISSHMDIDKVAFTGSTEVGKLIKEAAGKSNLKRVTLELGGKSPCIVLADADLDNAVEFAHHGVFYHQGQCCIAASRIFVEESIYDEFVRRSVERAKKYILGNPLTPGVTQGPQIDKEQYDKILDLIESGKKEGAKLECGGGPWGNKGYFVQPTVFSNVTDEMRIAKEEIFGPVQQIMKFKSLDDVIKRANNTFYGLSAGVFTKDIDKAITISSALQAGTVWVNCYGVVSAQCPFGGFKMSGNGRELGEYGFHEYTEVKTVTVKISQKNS

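For activity, negative = inhibition in this document: plate controls were no enzyme wells and a reference inhibitor.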
Potency is read from the fitted curve at half-maximal effect; tags tell the direction and shape of the fitted curve.

SMILES	activity, negative = inhibition	Potency
CCCCCC/C=C1\CC(C(=O)OCC)Oc2ccccc21 (configuration not stated) (tested in a mixture with another compound)	inactive: 3.63%	
O=C(O)c1cc(C(F)(F)F)nc2ccccc12		inactive
CC1=CC[C@@]23CCCN2C(=O)CCC[C@H]3C1	inactive: -12.4% [at 120 µM]	
O=C(CN1CCN(c2ccc(O)cc2)CC1)Nc1cc(S(=O)(=O)N2CCCCC2)ccc1Cl		active: 23.8 µM
COc1ccc(-c2noc(C3CCCN(C(=O)CCc4ccccc4)C3)n2)cc1 (configuration not stated)		inconclusive [inhibitor, single point]
Cn1c(=O)c2c(nc(NC3CCCCC3)n2CC(O)COc2ccccc2)n(C)c1=O (configuration not stated)		inconclusive [inhibitor, single point]
Cc1ccc2oc(=O)c(/C=C(\O)c3sc(C)nc3C)nc2c1		inconclusive [inhibitor, single point]
O=C(Cn1c(=O)n(Cc2ccco2)c(=O)c2c3c(sc21)CCCCC3)Nc1ccccc1		active: 7.08 µM
Cc1cccc(/C=C/c2ccccc2)n1	inactive: 8.04%	
CC1(C)CC(=O)C2=C(C1)OC(N)=C(C#N)C2c1ccccc1 (configuration not stated)		active: 14.1 µM
Cc1cccc(OCc2nnc(SCc3cc(=O)n4cc(Br)ccc4n3)o2)c1		inconclusive [inhibitor, single point]
Cc1onc(-c2ccccc2)c1C(=O)NC(=S)NNC(=O)c1ccc(O)cc1O		inconclusive [inhibitor, single point]
CCN1CCN(CC(O)COC(c2ccccc2)c2ccccc2)CC1 (configuration not stated)		inconclusive [inhibitor, single point]
O=C(/C=C/Nc1ccc(F)cc1F)c1cccs1		active: 2.38 µM
COc1cc2c(cc1OC)CN(C(=O)CSc1nnc3scc(-c4ccccc4)n13)CC2		inconclusive [inhibitor, single point]
COc1ccc(-c2nnc(-c3cc4ccccc4oc3=O)o2)cc1		inconclusive [inhibitor, single point]
Cc1ccc(S(=O)(=O)NCCCC(=O)C=[N+]=[N-])cc1		active: 12.6 µM
COc1cccc(OC)c1-c1nn2c(-c3cc(-c4ccccc4)n[nH]3)nnc2s1	inactive: 6.06%	
CC(=O)N(CCC(Cc1ccccc1)c1ccc2c(c1)OCO2)Cc1ccc(Cl)cc1 (configuration not stated)		inconclusive [inhibitor, partial curve]
C=CCn1c[n+](CC(=O)c2ccc(Br)s2)c2ccccc21	inactive: 3.54%	
CCc1cc(C(=O)Cc2nc3ccccc3[nH]2)c(O)cc1O		inconclusive [inhibitor, single point]
CC(=O)n1cc([C@@H]2C=C(C(=O)N3CCN(Cc4ccccc4)CC3)O[C@H](OCc3ccc(CO)cc3)C2)c2ccccc21		active: 15.8 µM
Cc1ccc(COc2ccsc2C(=O)NN)cc1		active: 6.31 µM
CCCn1c(SCC(=O)Nc2sc(C)c(C)c2C(=O)OC)nc2c1c(=O)n(C)c(=O)n2C		inconclusive [inhibitor, single point]
Cc1ccccc1N=C1SCC(=O)N1Cc1ccccc1	inactive: -9.32%	
COc1cccc(CNc2ncn[nH]2)c1OCc1ccccc1F		inconclusive [inhibitor, partial curve, poor fit]

SMILES	activity, negative = inhibition	Potency
CC1(C)CN2C(=S)N(c3ccccc3)C(c3ccccc3)N2C1 (configuration not stated)		inconclusive [inhibitor, single point]
O=C(NCC1CCCO1)C1CC(=O)N(C2CCCC2)C1 (configuration not stated)	inactive: 3.8%	
O=C(NCCc1nc2ccccc2[nH]1)c1ccc([N+](=O)[O-])cc1	inactive: 5.01%	
COC(CNC(=O)c1ccc(Cn2c(=S)[nH]c3cc4c(cc3c2=O)OCO4)cc1)OC	inactive: -3.82%	
COc1ccc(C(=O)N2CCC[C@@]3(CCN(Cc4ccccc4OC)C3)C2)cc1	inactive: 1.37%	
COc1ccc(-n2c(CNC(=O)COc3ccc(Cl)cc3Cl)n[nH]c2=S)cc1	inactive: -10.6%	
O=S(=O)(NCc1ccco1)c1cnc(Cl)c(Br)c1		active: 22.4 µM
COC(=O)c1cc(NC(=O)c2ccc(OC)cc2)c(=O)oc1C	inactive: 1.69%	
Cc1cccc2cc(CN(Cc3nnnn3Cc3ccccc3)C3CCCC3)c(=O)[nH]c12		active: 15.8 µM
Cc1onc(-c2ccccc2Cl)c1C(=O)OCC(=O)c1c(N)n(C)c(=O)n(C)c1=O	inactive: -5%	
Clc1ccc(CO/N=C2\CCCc3nonc32)cc1	inactive: 2.3%	
CC(C)C[C@H](N)c1cn([C@@H](Cc2ccc(O)cc2)C(=O)N2CCNCC2)nn1	inactive: -6.34%	
COc1cc(CNc2ccc3c(c2)CCC3)cc(OC)c1O		active: 20 µM
COc1cccc(C(=O)NCC(=O)OCC(=O)c2ccccc2)c1	inactive: 3.71%	
Cc1oc(-c2ccc3c(c2)OCCO3)cc1C(=O)NCC(=O)O		inconclusive [inhibitor, single point]
CS(=O)(=O)N(CC(=O)NCCSCc1ccco1)c1ccc(Cl)cc1		inconclusive [inhibitor, single point]
CCCCCc1ccc(OCCCC[n+]2ccc(C)cc2)c(CCCCC)c1	inactive: -4.77%	
Cc1noc(C)c1-c1nnc(-c2ccc(C(F)(F)F)cc2)o1	inactive: 5.17%	
COc1ccc(N=C/C=C2/C=C(c3ccccc3)OC(C)(C)O2)cc1		active: 1.41 µM
CCN(CC)C(=O)c1ccc(COc2ccccc2Br)o1		inconclusive [inhibitor, single point]
COc1cccc(C(=O)Nc2cccc(OCC(=O)c3ccccc3)c2)c1		inconclusive [inhibitor, single point]
C=CCn1c(SCC(=O)Nc2sc3c(c2C#N)CCC3)nnc1C1COc2ccccc2O1 (configuration not stated)		inconclusive [inhibitor, single point]
COCCn1c(C)cc(C(=O)CSc2ncnc3sc4c(c23)CCC4)c1C	inactive: -6.4%	
COc1cc2c(cc1OC)C1=C(C#N)CN(C3CCCCC3)CN1CC2		inconclusive [inhibitor, partial curve]
COc1ccccc1-c1nnc(N)s1		inconclusive [inhibitor, partial curve]
C=CC(C1=CC(=O)C=CC1=O)c1ccc(O)cc1 (configuration not stated)		inconclusive [inhibitor, single point]

SMILES	activity, negative = inhibition	Potency
CC(O)CCC(=O)NNC1=CC(=O)CC(C)(C)C1 (configuration not stated)	inactive: 5.38%	
O=C(CNCCO)N1N=C(c2cccs2)CC1c1cccs1 (configuration not stated)		inconclusive [inhibitor, single point]
Cc1cccc2cc(CN(Cc3nnnn3Cc3ccco3)C3CCCC3)c3nnnn3c12		inconclusive [inhibitor, partial curve]
CCN(CC)CCCn1c(=S)[nH]c2ccccc2c1=O	inactive: -7.02%	
CCN(CC)S(=O)(=O)c1ccc(C(=O)N2CCCCC2)cc1	inactive: -15%	
CCOC(=O)C1(CCSC)NC(c2ccco2)C2C(=O)N(CC)C(=O)C21 (configuration not stated)		inconclusive [inhibitor, single point]
Cc1ccc(C(=O)C2CCN(C(=S)NCC3CCCO3)CC2)cc1 (configuration not stated)		inconclusive [inhibitor, single point]
CCOC(=O)c1c(NC(=O)CSc2c[nH]c3ccccc23)sc2c1CCCC2		inconclusive [inhibitor, single point]
Nn1c(C2COc3ccccc3O2)n[nH]c1=S (configuration not stated)		active: 4.47 µM
CCCCNc1nc(=S)[nH]c2cc(OC)c(OC)cc12		inconclusive [inhibitor, single point]
CCOC(=O)c1cnn2c(C(F)(F)F)cc(-c3ccco3)nc12		inconclusive [inhibitor, partial curve]
COc1cc(C)ccc1OCCOc1c(Cl)cc(Cl)cc1Cl	inactive: 6.32%	
CC1CCCC(=C\c2ccccc2)/C1=N/O (configuration not stated)	inactive: -7.94%	
O=c1oc2cc(O)ccc2c2c1CCCC2		inconclusive [inhibitor, partial curve]
O=C(CCNS(=O)(=O)c1cccc2nonc12)N1CCN(c2cccc(Cl)c2)CC1		active: 2 µM
CCc1c(C#N)c(SCCC(=O)Nc2ccc(OC)cc2)nc2c1C(=O)CC(C)(C)C2		inconclusive [inhibitor, partial curve]
O=C(Nc1ccc(S(=O)(=O)Nc2nccs2)cc1)c1ccc(S(=O)(=O)N2CCOCC2)cc1		inconclusive [inhibitor, single point]
CCOc1ccc(CN2CCN(C(=O)c3cccc(F)c3)CC2)cc1		inconclusive [inhibitor, single point]
CCOC(=O)N1CCC(N2CCCC(C(=O)c3cc(F)ccc3OC)C2)CC1 (configuration not stated)		inconclusive [inhibitor, single point]
Cn1cc([N+](=O)[O-])c(C(=O)Nc2nc(-c3ccc(Cl)cc3)cs2)n1		inconclusive [inhibitor, single point]
COc1cccc(C2C(C#N)=C(N)Oc3cc(C)[nH]c(=O)c32)c1OC (configuration not stated)		inconclusive [inhibitor, partial curve, poor fit]
Cc1cc(C(=O)N/N=C/c2ccc(O)c([N+](=O)[O-])c2)c(C)n1-c1ccc(F)cc1		inconclusive [inhibitor, single point]
c1ccc(-c2cn3c(n2)CCc2ccc4cccnc4c2-3)cc1		inconclusive [inhibitor, single point]
O=C(NCc1ccc2c(c1)OCO2)c1ccc(N2CCCCCC2)c([N+](=O)[O-])c1		active: 10 µM
O=C(/C=C\Nc1ccc2c(c1)OCO2)c1ccc(Cl)s1	inactive: -3.52%	
